Test results reported in the supplement of paper PMC3722116.

Experiments:
[1] = compound: T1, OC(c1cc(C(F)(F)F)nc2c(C(F)(F)F)cccc12)C1CCCCN1 [mefloquine]; experiment: slope of the dose-response curve (dimensionless); higher = steeper concentration-effect curve
Experimental: (§1)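 Hypoxanthine uptake by fresh isolates, duplicate serial dilutions, 24 h of drug plus 18 h after the label; sigmoid fit per isolate.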

[2] = compound: T2, CCCCN(CCCC)CC(O)c1cc(Cl)cc2c1-c1ccc(Cl)cc1/C2=C/c1ccc(Cl)cc1 [lumefantrine]; experiment: as above
Experimental: as §1

[3] = compound: T3, CCN(CC)CCCC(C)Nc1ccnc2cc(Cl)ccc12 [chloroquine]; experiment: as above
Experimental: as §1

[4] = compound: T1, mefloquine
Experimental: as §1

[5] = compound: T2, lumefantrine
Experimental: as §1

[6] = compound: T3, chloroquine
Experimental: as §1

[7] = compound: T4, C[C@H]1[C@H](OC(=O)CCC(=O)O)O[C@@H]2O[C@@]3(C)CC[C@H]4[C@H](C)CC[C@@H]1[C@@]24OO3 [artesunate]; experiment: slope of the dose-response curve (dimensionless); higher = steeper concentration-effect curve
Experimental: as §1

[8] = compound: T4, artesunate
Experimental: as §1

Row | Test System | slope [1] | slope [2] | slope [3] | EC50 of parasite growth [4] [µg/mL] | EC50 of parasite growth [5] [µg/mL] | EC50 of parasite growth [6] [µg/mL] | slope [7] | EC50 of parasite growth [8] [µg/mL]
1 | Plasmodium falciparum isolate 336 (pfmdr1 allele: 86N, 1042N, pfmdr1 copies: 2) | 3.02 | 2.43 | 9.87 | 0.0386 | 0.0166 | 0.0866 |  | 
2 | Plasmodium falciparum isolate 431 (pfmdr1 allele: 86N, 1042N, pfmdr1 copies: 3) | 3.78 | 2.58 | 2.79 | 0.0574 | 0.0536 | 0.0353 |  | 
3 | Plasmodium falciparum isolate 56 (pfmdr1 allele: 86N, 1042N, pfmdr1 copies: 1) |  | 10 | 4.63 |  | 0.054 | 0.164 |  | 
4 | Plasmodium falciparum isolate 452 (pfmdr1 allele: 86N, 1042N, pfmdr1 copies: 3) | 2.43 | 3.19 | 3.02 | 0.023 | 0.0272 | 0.0765 |  | 
5 | Plasmodium falciparum isolate 207 (pfmdr1 allele: 86N, 1042N, pfmdr1 copies: 4) | 5.18 | 9.98 | 7.51 | 0.136 | 0.122 | 0.117 |  | 
6 | Plasmodium falciparum isolate 470 (pfmdr1 allele: 86N, 1042N, pfmdr1 copies: 1) | 7.2 | 0.974 | 3.04 | 0.0474 | 0.0592 | 0.136 |  | 
7 | Plasmodium falciparum isolate 340 (pfmdr1 allele: 86N, 1042N, pfmdr1 copies: 1) | 1.86 | 0.847 | 3.54 | 0.0111 | 0.0278 | 0.0892 |  | 
8 | Plasmodium falciparum isolate 310 (pfmdr1 allele: 1042D, pfmdr1 copies: 1) | 1.63 | 1.81 | 3.23 | 0.00658 | 0.00239 | 0.103 |  | 
9 | Plasmodium falciparum isolate 277 (pfmdr1 allele: 86N, 1042N, pfmdr1 copies: 2) | 3.02 | 1.82 |  | 0.0313 | 0.0679 |  | 6.66 | 0.00266
10 | Plasmodium falciparum isolate 217 (pfmdr1 allele: 86N, 1042N, pfmdr1 copies: 2) | 3.04 | 1.78 | 2.8 | 0.0704 | 0.028 | 0.0748 |  | 
11 | Plasmodium falciparum isolate 248 (pfmdr1 allele: 86N, 1042N, pfmdr1 copies: 1) | 3.39 | 1.11 | 3.01 | 0.0384 | 0.0442 | 0.122 |  | 
12 | Plasmodium falciparum isolate 348 (pfmdr1 allele: 86N, 1042N, pfmdr1 copies: 1) | 1.82 | 1.76 | 15.2 | 0.0435 | 0.023 | 0.0829 |  | 
13 | Plasmodium falciparum isolate 384 (pfmdr1 allele: 86N, 1042N, pfmdr1 copies: 1) | 2.37 | 2.04 | 4.98 | 0.0204 | 0.00784 | 0.14 |  | 
14 | Plasmodium falciparum isolate 175 (pfmdr1 allele: 86N, 1042N, pfmdr1 copies: 1) | 3.2 | 2.59 | 3.55 | 0.0293 | 0.0205 | 0.127 |  | 
15 | Plasmodium falciparum isolate 437 (pfmdr1 allele: 86N, 1042N, pfmdr1 copies: 2) | 3.9 | 3.6 |  | 0.083 | 0.0467 |  | 9.68 | 0.00111
16 | Plasmodium falciparum isolate 52 (pfmdr1 allele: 86N, 1042N, pfmdr1 copies: 2) | 5.41 | 2.7 |  | 0.0594 | 0.0575 |  | 6.08 | 0.0012
17 | Plasmodium falciparum isolate 287 (pfmdr1 allele: 86N, 1042N, pfmdr1 copies: 2) | 2.36 | 1.84 |  | 0.0241 | 0.00372 |  | 2.44 | 0.00208
18 | Plasmodium falciparum isolate 78 (pfmdr1 allele: 86N, 1042N, pfmdr1 copies: 2) | 2.2 | 1.44 | 5.44 | 0.0786 | 0.0497 | 0.186 |  | 
19 | Plasmodium falciparum isolate 79 (pfmdr1 allele: 1042D, pfmdr1 copies: 1) | 2.47 | 3.51 |  | 0.0161 | 0.0679 |  | 4.85 | 0.0031
20 | Plasmodium falciparum isolate 161 (pfmdr1 allele: 1042D, pfmdr1 copies: 1) | 2.32 | 2.65 |  | 0.00443 | 0.00293 |  | 4.31 | 0.000502
21 | Plasmodium falciparum isolate 178 (pfmdr1 allele: 86N, 1042N, pfmdr1 copies: 2) |  | 2.9 | 3.02 |  | 0.0587 | 0.146 |  | 
22 | Plasmodium falciparum isolate 151 (pfmdr1 allele: 86N, 1042N, pfmdr1 copies: 1) | 2.89 | 2.03 | 4.99 | 0.023 | 0.00826 | 0.172 |  | 
23 | Plasmodium falciparum isolate 146 (pfmdr1 allele: 86N, 1042N, pfmdr1 copies: 3) | 2.83 | 2.78 | 1.81 | 0.0594 | 0.0435 | 0.0296 |  | 
24 | Plasmodium falciparum isolate 468 (pfmdr1 allele: 86N, 1042N, pfmdr1 copies: 1) | 1.33 | 2.67 |  | 0.0134 | 0.0252 |  | 1.27 | 0.00147

Row | Test System | slope [1] | slope [2] | slope [3] | EC50 of parasite growth [4] [µg/mL] | EC50 of parasite growth [5] [µg/mL] | EC50 of parasite growth [6] [µg/mL] | slope [7] | EC50 of parasite growth [8] [µg/mL]
25 | Plasmodium falciparum isolate 192 (pfmdr1 allele: 86N, 1042N, pfmdr1 copies: 2) | 5 | 8.2 | 4.07 | 0.0955 | 0.0523 | 0.11 |  | 
26 | Plasmodium falciparum isolate 395 (pfmdr1 allele: 86N, 1042N, pfmdr1 copies: 2) | 2.97 | 3.29 | 2.14 | 0.0656 | 0.078 | 0.0397 |  | 
27 | Plasmodium falciparum isolate 464 (pfmdr1 allele: 86N, 1042N, pfmdr1 copies: 3) | 4.9 | 2.09 |  | 0.115 | 0.0377 |  | 9.99 | 0.00105
28 | Plasmodium falciparum isolate 451 (pfmdr1 allele: 86N, 1042N, pfmdr1 copies: 2) | 2.59 | 0.68 | 2.77 | 0.0376 | 0.0416 | 0.0437 |  | 
29 | Plasmodium falciparum isolate 42 (pfmdr1 allele: 86N, 1042N, pfmdr1 copies: 1) | 2.69 | 3.77 |  | 0.0173 | 0.0245 |  | 5.07 | 0.000467
30 | Plasmodium falciparum isolate 330 (pfmdr1 allele: 86N, 1042N, pfmdr1 copies: 1) | 2.32 | 1.43 | 2.62 | 0.0303 | 0.0198 | 0.044 |  | 
31 | Plasmodium falciparum isolate 222 (pfmdr1 allele: 86N, 1042N, pfmdr1 copies: 2) | 1.62 | 2.05 | 5.97 | 0.00502 | 0.00298 | 0.0798 |  | 
32 | Plasmodium falciparum isolate 26 (pfmdr1 allele: 86N, 1042N, pfmdr1 copies: 2) | 3.72 | 3.91 | 3.6 | 0.0462 | 0.0369 | 0.0435 |  | 
33 | Plasmodium falciparum isolate 422 (pfmdr1 allele: 86N, 1042N, pfmdr1 copies: 3) | 3.79 | 10.7 | 4.75 | 0.0914 | 0.0618 | 0.0924 |  | 
34 | Plasmodium falciparum isolate 339 (pfmdr1 allele: 86N, 1042N, pfmdr1 copies: 1) | 2.19 | 4.98 | 2.89 | 0.0077 | 0.0463 | 0.062 |  | 
35 | Plasmodium falciparum isolate 331 (pfmdr1 allele: 86N, 1042N, pfmdr1 copies: 1) | 1.85 | 1.65 | 5.14 | 0.0224 | 0.0096 | 0.068 |  | 
36 | Plasmodium falciparum isolate 190 (pfmdr1 allele: 86N, 1042N, pfmdr1 copies: 1) | 1.48 | 1.38 |  | 0.00572 | 0.0202 |  | 3.57 | 0.00104
37 | Plasmodium falciparum isolate 51 (pfmdr1 allele: 86N, 1042N, pfmdr1 copies: 2) | 6.21 | 2.49 |  | 0.071 | 0.0705 |  | 8.41 | 0.00115
38 | Plasmodium falciparum isolate 474 (pfmdr1 allele: 86N, 1042N, pfmdr1 copies: 1) | 1.55 | 4.11 |  | 0.0059 | 0.0035 |  | 5.63 | 0.000327
39 | Plasmodium falciparum isolate 486 (pfmdr1 allele: 1042D, pfmdr1 copies: 1) | 3.22 | 3.29 | 9.18 | 0.0286 | 0.00928 | 0.473 |  | 
40 | Plasmodium falciparum isolate 298 (pfmdr1 allele: 86N, 1042N, pfmdr1 copies: 1) | 2.24 | 1.92 |  | 0.0319 | 0.0428 |  | 6.41 | 0.00172
41 | Plasmodium falciparum isolate 131 (pfmdr1 allele: 86N, 1042N, pfmdr1 copies: 2) | 3.4 | 3.14 |  | 0.085 | 0.0632 |  | 6.88 | 0.00962
42 | Plasmodium falciparum isolate 212 (pfmdr1 allele: 86N, 1042N, pfmdr1 copies: 3) | 9.47 | 4.88 |  | 0.054 | 0.0365 |  | 1.95 | 0.00112
43 | Plasmodium falciparum isolate 112 (pfmdr1 allele: 86N, 1042N, pfmdr1 copies: 1) | 1.96 | 2.63 |  | 0.0155 | 0.0127 |  | 3.72 | 0.000864
44 | Plasmodium falciparum isolate 264 (pfmdr1 allele: 86Y, pfmdr1 copies: 1) | 2.66 | 2.14 |  | 0.00674 | 0.0317 |  | 4.73 | 0.00135
45 | Plasmodium falciparum isolate 342 (pfmdr1 allele: 86N, 1042N, pfmdr1 copies: 1) | 3.28 | 3.56 | 1.91 | 0.0514 | 0.0486 | 0.0945 |  | 
46 | Plasmodium falciparum isolate 469 (pfmdr1 allele: 1042D, pfmdr1 copies: 1) | 1.68 | 1.07 |  | 0.00717 | 0.0213 |  | 1.88 | 0.00113
47 | Plasmodium falciparum isolate 218 (pfmdr1 allele: 86N, 1042N, pfmdr1 copies: 2) | 3.17 | 2.14 |  | 0.0432 | 0.0418 |  | 9.9 | 0.00237

Growth of fresh clinical P. falciparum isolates by hypoxanthine uptake over 42 h; for most isolates 1.6-1,647 nM mefloquine, 0.044-87 nM artesunate, 10-10,256 nM chloroquine, 2.4-236 nM lumefantrine. EC50, lower = more sensitive; slope from the same fit, higher = steeper. No active / inactive call. Fits with a coefficient of variation above 100% are not listed here; 15-28% of fits exceed 15%. Isolates are numbered anew.
